Test results reported in PubChem BioAssay AID463173 (ICCB-Longwood Screening Facility, Harvard Medical School, 2010).
About 4,300 (8.3%) of roughly 52,000 compounds were called active. Rule as the data show it: active = survival mostly below about 52% (no sharp cut-off); inactive = mostly above about 56%. Some of the results follow.

These molecules were tested on DeltatarO mutant (assay: growth inhibition of S. aureus wild type versus tarO mutant, primary screen, teichoic acid synthesis inhibitors, RN4220, OD600 (AID 463173)). Settings: OD600, 18 h, hits give low values, screened at 18.75 µg/mL (by protocol).
For `COc1ccc(-c2nc(Cn3c(SCc4ccccc4F)nc4ccncc43)c(C)o2)cc1OC`, the survival was inactive: 62%.
`Cc1ccc(S(=O)(=O)Nc2nc3n(n2)C(c2ccccc2Cl)C=C(c2ccccc2)N3)cc1` (configuration not stated) was tested, and the survival was active: 37%.
For `COc1cccc(C(=O)Nc2ccccc2-c2nnc(-c3cc(OC)ccc3Br)o2)c1`, the survival was inactive: 79%.
`O=C(Cc1ccc(Cl)cc1)NCC(c1cccs1)S(=O)(=O)c1ccc(F)cc1` (configuration not stated) was tested, and the survival was inactive: 95%.
With `Cn1cnc(S(=O)(=O)N2CCC(C(=O)NCc3ccc(F)cc3)CC2)c1` the survival was inactive: 57%.
In the case of `COc1ccc(C2=C(C)C(=O)N(Cc3ccc(C(=O)Nc4cc(C)ccc4C)cc3)S2(=O)=O)cc1`, the survival is reported as inactive: 77%.
For `Cc1cccc(N2CCN(CCCNC(=O)c3nnc(Cc4c(F)cccc4Cl)o3)CC2C)c1` (configuration not stated), the survival was inactive: 74%.
With `O=C(Cn1c(=O)n(-c2ccc(Cl)cc2)c(=O)c2oc3ccccc3c21)Nc1ccccc1` the survival was inactive: 99%.
For `CCc1ccc2[nH]c(=O)c(C(c3nnnn3C3CCCCC3)N3CCCC3)cc2c1` (configuration not stated), the survival was inactive: 90%.
In the case of `CC1CCN(c2ncnc3c2nnn3C)CC1`, the survival is reported as inactive: 92%.
`CCN(CC)S(=O)(=O)c1nnc(NC(=O)c2ccc(C(C)C)cc2)s1` was tested, and the survival was active: 44%.
In the case of `O=C(c1ccco1)N1CCN(c2nc3c(Cl)cccc3s2)CC1`, the survival is reported as inactive: 118%.
`CCOC(=O)c1[nH]c2c(c1Cc1ccccc1OC)C(=O)CC(c1ccc(OCC)cc1)C2` (configuration not stated) was tested, and the survival was inactive: 95%.
For `O=C(NCc1ccc2c(c1)OCO2)c1ccccc1Cl`, the survival was inactive: 62%.
`COc1ccc(C(=O)CCC(=O)Nc2ccc(OC)c(Cl)c2)cc1` was tested, and the survival was inactive: 86%.
For `CCN(CC)S(=O)(=O)c1ccc2c(c1)N(CC(=O)Nc1ccc(C)cc1C)C(=O)C1CCCN21` (configuration not stated), the survival was inactive: 86%.
For `COc1ccccc1N1CCN(c2nc3ccc(C)cc3n3nnnc23)CC1`, the survival was inactive: 128%.
In the case of `CC(C)NC(=O)c1ccccc1NC(=O)c1nsc2ccccc12`, the survival is reported as inactive: 54%.
`Cc1ccc(S(=O)(=O)c2nc(S(C)(=O)=O)sc2NCc2ccccc2)cc1` was tested, and the survival was inactive: 76%.
For `CCOC(=O)c1c(C)oc2nc(C)nc(NCCc3ccc(SC)cc3)c12`, the survival was inactive: 83%.
With `COc1cc(NC(=O)Cn2nc(-c3ccc(C)c(C)c3)ccc2=O)cc(OC)c1` the survival was inactive: 71%.
With `CC(C)COC(=O)Cc1c(O)c2ccccc2[nH]c1=O` the survival was active: 39%.
For `Cc1nn2c(=O)cc(COC(=O)c3cccc(NC(=O)c4ccc(C(C)(C)C)cc4)c3)nc2s1`, the survival was inactive: 85%.
`O=C(COC(=O)c1cccc(NC(=O)c2ccc(Br)cc2)c1)c1ccc(Br)cc1` was tested, and the survival was inactive: 64%.
For `CC1SC(NC(=O)COc2ccccc2)=NC1=O` (configuration not stated), the survival was inactive: 78%.
With `CCc1ccc(NCc2cc3cc(OC)c(OC)cc3n(CC(=O)Nc3cc(C)ccc3C)c2=O)cc1` the survival was inactive: 75%.
`CN(C(=O)CN1C(=O)CCSc2ccc(S(=O)(=O)N3CCCC3)cc21)c1ccccc1` was tested, and the survival was inactive: 76%.
In the case of `Cc1cccc(C)c1Nc1nc2ccccc2nc1NS(=O)(=O)c1ccccc1`, the survival is reported as inactive: 79%.
With `CCC(C)OC(=O)/C(C#N)=C\c1ccc(-c2cccc(C(F)(F)F)c2)o1` (configuration not stated) the survival was inactive: 64%.
With `COc1ccc(S(=O)(=O)N(CC(=O)NCc2ccccc2)c2ccc(C)cc2)cc1OC` the survival was inactive: 69%.
With `O=S(=O)(c1ccc2c(c1)CCN2)N1CCCCCC1` the survival was inactive: 85%.
With `Cc1ccc2c(c1)c1c(c(=O)n(Cc3ccccc3)c(=O)n1CC(=O)NCc1ccccc1Cl)n2C` the survival was inactive: 71%.
For `Cc1cc(O)c(C(c2ccccc2)N2CCN(C)CC2)c(=O)n1Cc1ccco1` (configuration not stated), the survival was inactive: 112%.
With `O=C(Nc1ccccc1)N(Cc1ccc(F)cc1)c1ccccn1` the survival was inactive: 56%.
In the case of `C=Cc1ccc(CN2C(=O)c3ccccc3Sc3ccc(C(=O)OCc4ccco4)cc32)cc1`, the survival is reported as inactive: 78%.
With `COc1ccc(-c2noc(CN(C(C)C)S(=O)(=O)c3ccc(Br)cc3)n2)cc1` the survival was active: 44%.
In the case of `CC1=C(C(=O)N2CCN(c3cccc(C)c3C)CC2)C2(CCCCC2)OC1=O`, the survival is reported as inactive: 80%.
In the case of `Cc1cccc(NC2=CC(c3cccc(Br)c3)N(c3cccc(C)c3)C2=O)c1` (configuration not stated), the survival is reported as inactive: 137%.
With `CCOC(=O)c1c(C)[nH]c(C)c1S(=O)(=O)NCC(=O)N1CCN(c2cccc(C)c2)C(C)C1` (configuration not stated) the survival was inactive: 108%.
`CCOC(=O)c1cc(=O)n2[nH]c(-c3ccc(Br)cc3)cc2n1` was tested, and the survival was inactive: 93%.
`O=C(Cn1c(=O)nc(-c2ccccc2)c2ccccc21)NCc1ccc(F)cc1` was tested, and the survival was inactive: 98%.
`O=C(c1ccccc1)N(Cc1ccc2c(c1)OCO2)Cc1nc2ccccc2c(=O)[nH]1` was tested, and the survival was inactive: 77%.
With `Cc1ccccc1-c1noc(-c2cccnc2N(C)Cc2ccc(Cl)cc2)n1` the survival was inactive: 56%.
`O=C(C1CC1)N1CCN(c2nc3c(Cl)cccc3s2)CC1` was tested, and the survival was inactive: 77%.
In the case of `Fc1ccc(Cc2cn3cc(-c4ccccc4)nc3s2)cc1`, the survival is reported as active: 51%.
`COc1ccc(CCNC(=O)CSc2nnnn2-c2cccc(C(C)=O)c2)cc1OC` was tested, and the survival was inactive: 64%.
With `CCOC(=O)c1cccc(NC(=O)CCC(=O)N2CC(C)Oc3ccc(C)cc32)c1` (configuration not stated) the survival was inactive: 51%.
`CCN(CC)CCCNC(=O)c1ccc2c(c1)NC(=O)C(CS(=O)(=O)Cc1cccc(Br)c1)N2` (configuration not stated) was tested, and the survival was inactive: 128%.
For `Cc1ccc(CNC(=O)c2c(O)nc3c(C)cccn3c2=O)cc1`, the survival was inactive: 64%.
For `Cc1ccc(C)c2[nH]c(=O)c(CN(Cc3ccco3)Cc3nnnn3C(C)(C)C)cc12`, the survival was inactive: 81%.
`O=C1CCC(=O)N1CC(=O)N1CCCc2ccccc21` was tested, and the survival was inactive: 85%.
`Cc1nc2ccc(S(=O)(=O)NC(CC(C)C)C(=O)N3CCN(c4ccc(F)cc4)CC3)cc2s1` (configuration not stated) was tested, and the survival was inactive: 70%.
`CC1Oc2ccccc2N(CC(=O)NC2CCCC2)C1=O` (configuration not stated) was tested, and the survival was inactive: 57%.
`COc1ccc(Br)cc1CNC(=O)c1nn(-c2ccc(C)cc2)c(=O)c2c1c1ccccc1n2C` was tested, and the survival was inactive: 131%.
`Cc1ccc(NC(=O)C2CCCN2S(=O)(=O)c2cccc3nsnc23)cc1Cl` (configuration not stated) was tested, and the survival was inactive: 57%.
With `COc1ccc(CNC(=O)CSc2ncc(S(=O)(=O)c3ccc(C)c(Cl)c3)c(=O)[nH]2)cc1` the survival was inactive: 80%.
In the case of `C=CCC(C)(NCc1ccccc1)c1ccco1` (configuration not stated), the survival is reported as inactive: 110%.
